Results: the supplement of paper PMC11417369
This is one part of the list.

system: PfSIP2 AP2 domain 1 (GST-tagged); test: gcPBM binding intensity (ln(normalized median fluorescence intensity)); higher = stronger DNA binding
Method in brief: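 Alexa488 anti-GST antibody, scanned at 488 nm, detected GST-tagged P. falciparum DNA-binding domains that had been expressed in E. coli and incubated for 1 h on an Agilent 4 × 180k array. The array carried primer-extended double-stranded 36-bp intergenic genomic probes and negative controls. Binding intensity is the highest Masliner-normalised natural-log median intensity across replicate spots of either orientation of each probe.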

Sequence	gcPBM binding intensity (ln)
AAAATTGAAGGTAGAAGTACATATTTATTTCAATAA [XGTACX_site8732]	6.76
TTATGAATACTTCAAGTGCATTTATTTTATATGACA	7.86
ATTGTGGATATTCTTACACACAAATTTATATATAAA [CACACA_site2601]	6.79
ATATTCTAAATAAAGGGTACACAAAAATAATTAAAG [XGTACX_site5529]	7.49
TATTTGTAATATTATACACACATTATGTATTACAAA [CACACA_site3386]	7
TTTTGTATATTATATGTACACACAATAAGTTAATAT [CACACA_site8207]	7.13
TATGAACTTTTGGGGGTGCCTTAAAATGTATATTCT	8.27
ATATATATATAAAGCAGTACACACATTTATTTTAGA [XGTACX_site7226]	8.8
TATCAAAGTAGAAGAGATCGATGTCATATTGTGATG [GTGCAC_negctrl_site42]	7.05
TCCCAATTTATTATGTGTACTTATTATATACATATA [XGTACX_site4033]	7.16
CACAGACACGGACACACACACATATATATATATATA [CACACA_site5248]	9.5
ATAATATGAAGAAGCACACTCAATTAAATACAGATA [CACACA_site4690]	6.84
ATACACACATATATGTGTACATATACATATATATAT [XGTACX_site6744]	8.43
AACAAAATAGGGAACACACACATGTCGATATATAAA [CACACA_site7265]	6.99
CAAAAGCGATACGGCACACATTTCCTGTTTAAATGA [CACACA_site5519]	6.85
TTAATTTTTAGAAGAACACACACATATATATTATGA [CACACA_site7969]	6.76
AAATTGATTATAAATTGTACAAGAACATACAACCTT [XGTACX_site5986]	6.86
TCATATAGATTATACACACACATATATAGATATATA [CACACA_site6587]	6.99
TTATATTTCAATTAAACATGCATTTTTGTGTAGCAC [TGCATGCA_site214]	6.98

Sequence	gcPBM binding intensity (ln)
TTATATATTTTATTATTTATAATCTTTTTTTTATTT [CACACA_negctrl_site112]	6.71
CATTTTTTAATAATAGCACACAGGACATACAAAACA [CACACA_site1245]	7.37
ACAGTATCTGGTAGCTGTACGAGTCGTAGAGTGTAG [XGTACX_site2011]	7.15
AAAATATAAAGTATTTGTACATAATATATTTTTAAA [XGTACX_site3494]	6.81
AATATATAAATAAATATATAAATAAATAATTGAAGC [CACACA_negctrl_site348]	7.04
TTCATTAATGTGTAATGTACTTGTAATATGGGATTA [XGTACX_site3903]	7.06
TGTTCTCTTCTTTTTTATTTTCCAAAGTAATAAGTT [TGCATGCA_negctrl_site424]	7.19
TATATATATTTATATGCATGTAATATATTTGTATTG [TGCATGCA_site323]	7.27
TAAATAAGTATTACTAGTACACACAAGTTGTTAATC [XGTACX_site7074]	6.99
AATTATTTTATGAAAAGTACACATTGTTTTAATTCT [XGTACX_site4506]	7.12
CATAAATCAGCCATAACACACATACATAAATACATA [CACACA_site4380]	7.04
TTAATTATAATTATATGTACGAACTTTTTTTTTTTT [XGTACX_site6586]	7.42
AGAAAAAAGAGGGATACACACAAACATATATATATA [CACACA_site5269]	9.01
CACAAAAAGAAACACACACACATATATATATATATA [CACACA_site999]	9.67
ATTCTAAATAATAAGAGTACAAATAATATGGAGAAG [XGTACX_site5209]	7.42
GAAAATATGTAATAGTGTACACATATATATGTATAT [XGTACX_site306]	7.5
TGCTCATTCCTGTCATGTACATATTATATATATATA [XGTACX_site6890]	9.24
ATATGAACATTTACATGTACATGTAAATGTAACACT [XGTACX_site4574]	7.17
ACTCCATAATATTGATGTACTATAATGCATTTATTT [XGTACX_site5562]	7.25

Sequence	gcPBM binding intensity (ln)
TATTTATTTTCATATAGTACTTTTTTCAGGCATATA [XGTACX_site6691]	7.09
TTATAGAATTTATTTACACACAAACATTTATACTTT [CACACA_site7592]	6.93
TTTATTTATGTTGAAACATGCAAAAAGTTATTTATA [TGCATGCA_site716]	6.78
TTCAAAAGCCGGATAACATGCAGTAGTAGAACAAAC [TGCATGCA_site413]	7.31
TTTCTGTGTTTTGGTTGTACACACGCTACATTATAT [XGTACX_site5669]	7.27
TTGTTTTTTTTTTCTATAAGCATAAAAATGATATAA [XGTACX_negctrl_site356]	6.83
AAATTAAAAAAATAATGTACATGTATTTATTATGTA [XGTACX_site2419]	7.12
TTTATTTATTATTAAAGTACTAAATCATATAATTAT [XGTACX_site5727]	6.72
TTTTATTTCTTTGCACCATTTTAAATACAAACAAAT [CACACA_negctrl_site1553]	10.7
TAAAACAATACTTTGTGCTTCTCTGGTTTTTTTTTT [GTGCAC_negctrl_site284]	6.82
AGTATTCACTTAATATGTACATATTTATTATAAGAG [XGTACX_site3434]	7.09
GCTTTTAAAATAATTGGTACACATGTATAAATTCAA [XGTACX_site2327]	7.2
TGGTATATAAAACACACACACATATGTATTTATATA [CACACA_site4665]	7.11
TTTTGCCTTTCTACTTGTACTTAAAATATTATAATT [XGTACX_site5483]	7.61
TGTATGAAATATATTACACACATATAAAATCTATAT [CACACA_site6514]	6.75
TTGATGTTGGTAGGATGTACGGTACCGGTAAAGTTT [XGTACX_site7705]	7.1
TTTTTAATTTTTTGTTGTACATATAATATATTATTA [XGTACX_site4903]	7.17
AAGCTTCATTAATATACACACATATATGCGTATATT [CACACA_site3695]	6.81
TATATAATTATAAGAACACACATATATATATATATA [CACACA_site2472]	9.54
